# Data from the supplement of paper PMC11060735.
# Structures can show the parent of a compound that is named as a salt. Out of some 1,800 compounds screened, about 50 (3%) showed activity. Some of the results follow.
# System: mouse p16Ink4a+/- lung fibroblasts (INKBRITE, bleomycin-injured)
# Experiment: percentage of GFP+ (p16Ink4a+) fibroblasts among all cells in well; higher = less depletion of p16Ink4a+ cells, active = 20 or less
# Details: 1 µM; 3 days
# 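Note: fibroblasts sorted 14 days after bleomycin, GFP+ and GFP− mixed 1:1 in 384-well plates (GFP− as in-well control), imaged after Hoechst and NucView530 staining, reference wells lacked compound.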
row,SMILES,percentage of GFP+
1,OC(CN1CCN(c2cccc(Cl)c2)CC1)C(c1ccccc1)c1ccccc1 (stereo not given),inactive: 47.5%
2,CCOc1nc2cccc(C(=O)OCc3oc(=O)oc3C)c2n1Cc1ccc(-c2ccccc2-c2noc(O)n2)cc1 [Azilsartan medoxomil],inactive: 42.3%
3,CC(C)Cc1ccc(C(C)C(=O)O)cc1 (racemic),inactive: 48.8%
4,Cc1cn(-c2cc(NC(=O)c3ccc(C)c(Nc4nccc(-c5cccnc5)n4)c3)cc(C(F)(F)F)c2)cn1 [Nilotinib],inactive: 36.1%
5,Cc1nn(-c2ccccc2)c(C)c1/C=N/N1CCN(Cc2ccccc2)CC1,inactive: 48.6%
6,O=c1c(-c2ccc(O)cc2)coc2cc(O)cc(O)c12 [Genistein],inactive: 47.5%
7,O=C(Nc1ccc(OC(F)(F)F)cc1)c1sccc1NCc1ccnc2ccccc12,inactive: 30.4%
8,CC(C)(O)CC[C@@H](O)[C@](C)(O)[C@H]1CC[C@@]2(O)C3=CC(=O)[C@@H]4C[C@@H](O)[C@@H](O)C[C@]4(C)[C@H]3CC[C@]12C [20-Hydroxyecdysone],inactive: 38.8%
9,CCN1CCN(C(=O)N[C@@H](C(=O)N[C@@H]2C(=O)N3C(C(=O)O)=C(CSc4nnnn4C)CS[C@H]23)c2ccc(O)cc2)C(=O)C1=O [Cefoperazone sodium salt],inactive: 37.1%
10,O=C(O)C(O)Cc1ccc(O)c(O)c1 (stereo not given) [Sodium Danshensu],inactive: 40.2%
11,CNc1ncnc2c1ncn2[C@@H]1O[C@H](CO)[C@@H](O)[C@H]1O [N6-methyladenosine],inactive: 43.6%
12,COc1ccc2c(c1)c(CC(=O)OCC(=O)O)c(C)n2C(=O)c1ccc(Cl)cc1 [Acemetacin],inactive: 34.3%
13,CS(=O)c1ccc(-c2nc(-c3ccc(F)cc3)c(-c3ccncc3)[nH]2)cc1 (stereo not given),inactive: 41.1%
14,O=C(c1cncc(Br)c1)N1CCC(N2CCCC2)CC1,inactive: 38.2%
15,CN(C)CCc1c[nH]c2ccc(C[C@H]3COC(=O)N3)cc12 [Zolmitriptan],inactive: 38.5%
16,CN(Cc1cc(Br)cc(Br)c1N)C1CCCCC1 [Bromhexine],inactive: 36.3%
17,Cc1ccc([C@@H]2O[C@H](CO)[C@@H](O)[C@H](O)[C@H]2O)cc1Cc1ccc(-c2ccc(F)cc2)s1 [Canagliflozin],inactive: 40.1%
18,CCCc1nc(C)c2c(O)nc(-c3cc(S(=O)(=O)N4CCN(CC)CC4)ccc3OCC)nn12 [Vardenafil],inactive: 41.9%

row,SMILES,percentage of GFP+
1,NC(=O)N/N=C/c1ccc([N+](=O)[O-])o1 [Nitrofural],inactive: 40.2%
2,O=C(/C=C/c1ccc(O)c(O)c1)c1ccc(O)cc1O [Butein],inactive: 50.8%
3,CCNC(=O)Nc1ccc(-c2nc3c(c(N4CCOC[C@@H]4C)n2)CCN(C2COC2)C3)cc1,inactive: 34.5%
4,C[C@H](Oc1cc(-c2cnn(C3CCNCC3)c2)cnc1N)c1c(Cl)ccc(F)c1Cl [(S)-crizotinib],inactive: 42.1%
5,Nc1ccn([C@@H]2O[C@H](CO)[C@@H](O)C2(F)F)c(=O)n1 [Gemcitabine],active: 17.1%
6,O=C(O)/C=C/c1ccc(O)c(O)c1 [Caffeic Acid],inactive: 41.9%
7,NC(=O)c1ncn([C@@H]2O[C@H](CO)[C@@H](O)[C@H]2O)c1N [Acadesine],inactive: 36.7%
8,O=C(O)Cc1cccc(OCCCN(Cc2cccc(C(F)(F)F)c2Cl)CC(c2ccccc2)c2ccccc2)c1,inactive: 43.7%
9,N=C(N)N [Guanidine],inactive: 47.6%
10,CC1(C)S[C@@H]2[C@H](NC(=O)C(C(=O)O)c3ccccc3)C(=O)N2[C@H]1C(=O)O (stereo not given in full) [Carbenicillin],inactive: 45.8%
11,Cc1cc(C)c(CNC(=O)c2cc(-c3ccc(CN4CCOCC4)cc3)cc3c2cnn3C2CCCC2)c(O)n1,inactive: 49.7%
12,CN(C)C(=O)C(CCN1CCC(O)(c2ccc(Cl)cc2)CC1)(c1ccccc1)c1ccccc1 [Loperamide],inactive: 43.3%
13,CN(C)CCC=C1c2ccccc2CCc2ccccc21 [Amitriptyline],inactive: 57%
14,COC(=O)Nc1nc2cc(C(=O)c3ccc(F)cc3)ccc2[nH]1 [Flubendazole],inactive: 34.5%
15,O[C@@H](CNC[C@H](O)[C@H]1CCc2cc(F)ccc2O1)[C@@H]1CCc2cc(F)ccc2O1 [Nebivolol],inactive: 47.6%
16,CN1CCN(c2cccc(Nc3nc4c(-c5ccc(S(C)(=O)=O)cc5)cccn4n3)c2)CC1,inactive: 50%
17,NCCCCCNCC12CC3CC(CC(C3)C1)C2 [dihydrobroMide],inactive: 44.7%
